Broadly, the Kd is the free concentration of one partner at which half of the binding sites on the other are occupied at equilibrium, for simple one-to-one binding.

B1: Recombinant OspAST1 ([…]) from B. burgdorferi B31 (domain or fragment)
chain: not shown
Turning to B1, the Kd with 221-20 came out at 0.37 nM; with 223-5, 0.17 nM; with 227-2 it was 0.48 nM; with LA-2 it was 64 nM.

Values taken from paper doi:10.64898/2025.12.24.696337 (2025).
